Substrate in the series: N[C@@H](CS)C(=O)O
Kind of series: purified protein. To be noted: pH 8.0, 1 mM DTT, 37 °C, 50 mM Tris, 0.4 mM Pb(NO3)2. Format: biochemical, Escherichia coli.

As usually defined, the Km is the concentration of substrate that gives half-maximal velocity.

B1: IscS (cysteine desulfurase) (Escherichia coli K-12) (protein)
chain: MKLPIYLDYSATTPVDPRVAEKMMQFMTMDGTFGNPASRSHRFGWQAEEAVDIARNQIADLVGADPREIVFTSGATESDNLAIKGAANFYQKKGKHIITSKTEHKAVLDTCRQLEREGFEVTYLAPQRNGIIDLKELEAAMRDDTILVSIMHVNNEIGVVQDIAAIGEMCRARGIIYHVDATQSVGKLPIDLSQLKVDLMSFSGHKIYGPKGIGALYVRRKPRVRIEAQMHGGGHERGMRSGTLPVHQIVGMGEAYRIAKEEMATEMERLRGLRNRLWNGIKDIEEVYLNGDLEHGAPNILNVSFNYVEGESLIMALKDLAVSSGSACTSASLEPSYVLRALGLNDELAHSSIRFSLGRFTTEEEIDYTIELVRKSIGRLRDLSPLWEMYKQGVDLNSIEWAHH
notes: iscS gene in pET-28a (BamHI/XhoI), expressed in E. coli BL21(DE3) pLysS, HisTrap purified; tag removal not mentioned; PLP enzyme
Regarding B1, the Km was 0.8 ± 0.05 mM.

These data come from article PMC6797615, “Hydrogen Sulfide From Cysteine Desulfurase, Not 3-Mercaptopyruvate Sulfurtransferase, Contributes to Sustaining Cell Growth and Bioenergetics in E. coli Under Anaerobic Conditions” (Frontiers in Microbiology, 2019).
